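Grown in 96-well plates, cells were treated for 48 hours with each compound at five concentrations. Insufficient inhibition: endpoint recorded as highest concentration tested. Abbreviation: GI50, concentration required for 50% inhibition of growth. TGI: concentration producing complete growth inhibition.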

This experiment deals with NCI-H322M lung. The experiment in a line: growth of human tumour cells (NCI), 48 h.
As for `CS(=O)(=O)N1CC(CCl)c2ccc(O)cc21` (stereo unspecified), the TGI came out at 25.6 µM. On the same count and under the same terms, as for `CC(NC(=O)Cc1ccccc1)NC(=O)C(C)C(=O)NCc1ccccc1` (stereo unspecified), the figure is above 100 µM; as for `CC(=O)OCC1OC(n2c(C)c(N=Nc3ccc(Cl)cc3)c(C)c(C#N)c2=S)C(OC(C)=O)C(OC(C)=O)C1OC(C)=O` (stereo unspecified), above 100 µM.

Take `CC(=O)[CH-]C(=O)c1ccccc1.CC(=O)[CH-]C(=O)c1ccccc1.O=S(=O)([O-])c1cc([O-])c2c([O-])cc(S(=O)(=O)[O-])cc2c1.[Na+].[Ti+4]`: the GI50 is above 100000 nM and the TGI is above 100 µM.

The compound `CC(=O)Nc1c(C(=N)C#N)ncn1CCO` registered a TGI above 100 µM.

The compound `COc1ccc(C2(CC(C)C)CCN(S(=O)(=O)c3ccc(C)cc3)C2)cc1OC` (stereo unspecified) had a TGI above 100 µM. As for `COC(=O)[C@@H](NC(=O)N(Cc1ccccc1)C[C@H](CC(C)C)NC(=O)[C@@H](NC(=O)OC(C)(C)C)C(C)C)C(C)C`, the TGI was above 100 µM. On the same count and under the same terms, as for `C/C=C\C(CC(=O)NCC(=O)c1c[nH]c2ccccc12)CC(=O)OC` (stereo unspecified), the figure is above 100 µM. Regarding `CCOC(=O)C1=C(N)Oc2c(sc3c(C)cccc23)C1c1ccc(F)cc1` (stereo unspecified), the GI50 was 6470 nM and the TGI was 22.2 µM. Compound `O=C(CBr)c1ccc2cc(Br)c3ccccc3c2c1` displayed a TGI of 71.3 µM. Consider `Cn1cc(S(=O)(=O)N2CCC3=Cc4c(cnn4-c4ccc(F)cc4)C[C@]3(C(=O)c3cc(C(F)(F)F)ccn3)C2)cn1`, for which the GI50 is above 100000 nM and the TGI was above 100 µM. `C=C1CC[C@H]2C(=O)OC(c3ccoc3)C[C@]2(C)C/C=C\C=C/1C(=O)OC` (stereo partly specified) had a TGI above 25 µM. On the same count and under the same terms, the value for `Cc1c(Cl)cccc1NC(=O)c1cccc([N+](=O)[O-])c1O` was above 85.4 µM. As for `CNCCn1c(=O)c2cc(OC)c(OC)cc2c2cnc3cc4c(cc3c21)OCO4`, the GI50 is 35.8 nM and the TGI is 1.49 µM.

Turning to `O=C1c2ccccc2C(=O)c2c(NCCN=Cc3ccccc3O)cccc21`, the GI50 was 2170 nM and the TGI stood at 6.95 µM. Compound `NCCCNCCCCN1CCOC1=O` showed a TGI above 100 µM.

`CC(=O)SC(C[N+](=O)[O-])c1ccc2c(c1)OCO2` (stereo unspecified) showed a TGI of 31 µM. As for `CCCCC1C=Cn2c(=O)oc3c(OC(C)C)c(C)c(O)c1c32` (stereo unspecified), the TGI was 12.6 µM. Turning to `c1ccc2c3[nH]c(c2c1)=Nc1ccc(cc1)-c1nc2ccc(cc2o1)N=c1[nH]c(c2ccccc12)=Nc1ccc2nc(oc2c1)-c1ccc(cc1)N=3`, the TGI is above 100 µM.

Regarding `Oc1ccc(N=Nc2nccs2)c(O)c1`, the GI50 was 18200 nM and the TGI is 67.7 µM. Consider `CC(C)(C)OC(=O)N1C2CCCC23O[C@@H]1c1cc2c(cc1C3=O)OCO2` (stereo partly specified), for which the TGI was above 100 µM. As to `CCOC(=O)C1=C(Nc2ccc(Br)cc2)OCC1=O`, the TGI is above 100 µM. The same measure, in the same setting: the value for `O=C1C2[C@@H](C(=O)N1c1ccc(Br)cc1)C13C(=CC2([N+](=O)[O-])[C@@H]2C(=O)N(c4ccc(Br)cc4)C(=O)[C@@H]21)c1ccccc1N3c1ccccc1` (stereo partly specified) was above 100 µM; that for `CC(C)(C)c1cc(C(=O)/C=C/c2ccc(C(=O)O)cc2)cc(C(C)(C)C)c1` was 10.3 µM.

`Cc1ccc(S(=O)(=O)C2=C(C(C)C)N=NC2(C)C)cc1` displayed a TGI above 100 µM.

In the case of `COc1cccc(CC(=O)N2CCN(CCCc3ccccc3)CC2)c1`, the TGI was above 100 µM. `Clc1nc(Cl)c2ncn(Cc3ccccc3Cn3cnc4c(Cl)nc(Cl)nc43)c2n1`: the GI50 was 6400 nM and the TGI turned out to be 20.2 µM. For `CC12CCC(=O)N1c1cccnc1N2` (stereo unspecified), the TGI was above 100 µM. In the case of `NCCCn1c2c(c3ccccc3c1=O)C(=O)c1ccccc1-2`, the GI50 was 382 nM and the TGI worked out at 2.68 µM. `O=C1/C(=C\c2cccc(Oc3ccccc3)c2)S(=O)(=O)C(c2ccccc2)N1c1cccc(Cl)c1` (stereo unspecified) yielded a TGI above 100 µM. `CCOc1ccc(N=Cc2c3ccccc3nc3ccccc23)cc1` registered a TGI above 100 µM. Compound `CS(=O)(=O)CS(=O)(=O)OCCCl` showed a TGI of 1030 µM. `COc1ccc(C2COc3c(ccc(O)c3C)C2)cc1OC` (stereo unspecified) displayed a TGI above 200 µM. The compound `CCOc1cc(NC(C)=O)ccc1C(=O)NNS(=O)(=O)c1ccc(NC(C)=O)cc1` gave a TGI above 100 µM.

For the compound `C[Si](C)(C)CN1C(=O)c2ccccc2C1(O)c1ccccc1` (stereo unspecified), the TGI was above 100 µM. As for `c1ccc2c(c1)c1ccccc1c1ccccc21`, the GI50 was above 100000 nM and the TGI is above 100 µM. The compound `O=C1CCSCCC(=O)Nc2ccccc2N1` gave a TGI above 100 µM.

In the case of `COc1ccc(CNc2nc(NC3CCCCC3)nc(NC3CCCCC3)n2)cc1`, the TGI was above 100 µM. The compound `CC(=O)OCCOCNC(=S)N/N=C/c1ccc([N+](=O)[O-])s1` showed a TGI above 100 µM. With `COc1cc2c3c(n(CCCN(C)CCO)c(=O)c2cc1OC)-c1cc2c(cc1C3=O)OCO2`, the GI50 is 21000 nM and the TGI is 98.6 µM.

`O=C1CC(=O)NC(=NN2C(=O)/C(=C/c3ccc(Cl)c(Cl)c3)N=C2c2ccccc2)N1` had a TGI above 100 µM.

The compound `C/C(=N\NC(=S)N1CCCC1)c1nc2ncccc2[nH]1` yielded a TGI above 100 µM. Same read-out and setting: the value for `c1ccc2c(c1)Nc1cccc3c1c-2nc1ccccc13` was 2.42 µM; that for `O=C(Cn1c2ccc(Br)cc2c2nc3ccccc3nc21)NNC(=S)NC1CCCCC1` was 67 µM. On to `NCCCOc1cc2ccccc2cc1C(=O)NCCCOc1cc2ccccc2cc1C(=O)Nc1ccc(Cl)cc1O`, for which the GI50 was 1450 nM and the TGI came to 3.05 µM.

As to `C=C1C(=O)OC2C1CC(OC(C)=O)/C(C)=C/CCC1(C)OC21` (stereo unspecified), the TGI was above 100 µM.

Take `Cc1c2c(C(N)=O)nccc2c(C)c2c1c1ccccc1n2Cc1ccccc1`: the TGI worked out at 39.8 µM.

The compound `N/C(=N\S(=O)(=O)c1ccc(-c2ncccc2C(F)(F)F)s1)Nc1ccc(Cl)cc1` registered a TGI of 27.6 µM. Turning to `COc1ccc(-c2cc(Nc3ccnc(N4CCOCC4)n3)on2)cc1`, the GI50 was 615 nM and the TGI is 20.1 µM. On the same counts, the results for `Cc1cc(NCCCCNc2ccnc3cc(Cl)ccc23)nc(Nc2ccc(C(=O)N3CCCCC3)cc2)n1` are 2080 nM and 6.77 µM.

On to `O=c1cc(CF)[nH]c(=S)[nH]1`, for which the TGI was above 100 µM.

`Cc1ccc(CSC(N)=Nc2ccccc2)cc1C`: the TGI came out at 83.7 µM. In the case of `NCCN.O=C([O-])[O-].O=C([O-])[O-].[Co+3].[K+]`, the GI50 was above 100000 nM and the TGI is above 100 µM.

With `C=CC1(CC[C@]2(c3ccc(OC)c(OC)c3)C=[N+]([O-])O[C@H](O[C@@H]3CCCC[C@H]3C(C)(C)c3ccccc3)C2)OCC(C)(C)CO1`, the TGI is above 67 µM.

Compound `CCOC(=O)c1c(OCC)[nH]c(=O)c(C(c2cccs2)c2c(O)c(C(=O)OCC)c(OCC)[nH]c2=O)c1O` showed a TGI of 52.1 µM.

`COCn1cnc2c(=O)nc(SC)n(-c3ccccc3)c21` had a TGI above 100 µM. In the case of `N#CC(C#N)=C1CCCOc2c1ccc1ccccc21`, the GI50 was above 100000 nM and the TGI was above 100 µM.

Compound `Cc1ccc2occ/c(=N\Nc3ccccc3)c2c1` registered a TGI above 100 µM. Take `O=C1OCC2OC(=O)c3cc(O)c(O)c(O)c3-c3c(O)c(O)c(O)c4c3C(=O)OC(C2OC(=O)c2cc(O)c(O)c(O)c2-c2c1cc(O)c(O)c2O)C1OC(=O)C2C4=C(O)C(=O)C23Oc2cc(O)c4c(c2[C@H]13)O[C@H](c1ccc(O)c(O)c1)[C@@H](O)C4` (stereo partly specified): the TGI was above 100 µM. With `COc1ccc2c(c1)c(-c1nc(-c3c[nH]c4ncccc34)cs1)cn2CCCCN1CCCCC1`, the GI50 is 1560 nM and the TGI came out at 2.98 µM.

Source of the values: PubChem BioAssay (NCI).
